Results reported in article PMC4336329 (PLoS ONE, 2015).
About 14,000 (4.5%) of roughly 310,000 compounds showed an effect of 50% or more. The effect is printed as a negative number. The list shows a part of the results.

The compounds below were run against human ether-à-go-go-related gene (hERG) potassium channel (human, UniProt Q12809) (assay: primary screen, population patch clamp on CHO cells stably expressing hERG).
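Further: peak tail current of the secondary pulse compared with the same well before compound.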

Chain of human ether-à-go-go-related gene (hERG) potassium channel (Q12809 whole entry, looked up): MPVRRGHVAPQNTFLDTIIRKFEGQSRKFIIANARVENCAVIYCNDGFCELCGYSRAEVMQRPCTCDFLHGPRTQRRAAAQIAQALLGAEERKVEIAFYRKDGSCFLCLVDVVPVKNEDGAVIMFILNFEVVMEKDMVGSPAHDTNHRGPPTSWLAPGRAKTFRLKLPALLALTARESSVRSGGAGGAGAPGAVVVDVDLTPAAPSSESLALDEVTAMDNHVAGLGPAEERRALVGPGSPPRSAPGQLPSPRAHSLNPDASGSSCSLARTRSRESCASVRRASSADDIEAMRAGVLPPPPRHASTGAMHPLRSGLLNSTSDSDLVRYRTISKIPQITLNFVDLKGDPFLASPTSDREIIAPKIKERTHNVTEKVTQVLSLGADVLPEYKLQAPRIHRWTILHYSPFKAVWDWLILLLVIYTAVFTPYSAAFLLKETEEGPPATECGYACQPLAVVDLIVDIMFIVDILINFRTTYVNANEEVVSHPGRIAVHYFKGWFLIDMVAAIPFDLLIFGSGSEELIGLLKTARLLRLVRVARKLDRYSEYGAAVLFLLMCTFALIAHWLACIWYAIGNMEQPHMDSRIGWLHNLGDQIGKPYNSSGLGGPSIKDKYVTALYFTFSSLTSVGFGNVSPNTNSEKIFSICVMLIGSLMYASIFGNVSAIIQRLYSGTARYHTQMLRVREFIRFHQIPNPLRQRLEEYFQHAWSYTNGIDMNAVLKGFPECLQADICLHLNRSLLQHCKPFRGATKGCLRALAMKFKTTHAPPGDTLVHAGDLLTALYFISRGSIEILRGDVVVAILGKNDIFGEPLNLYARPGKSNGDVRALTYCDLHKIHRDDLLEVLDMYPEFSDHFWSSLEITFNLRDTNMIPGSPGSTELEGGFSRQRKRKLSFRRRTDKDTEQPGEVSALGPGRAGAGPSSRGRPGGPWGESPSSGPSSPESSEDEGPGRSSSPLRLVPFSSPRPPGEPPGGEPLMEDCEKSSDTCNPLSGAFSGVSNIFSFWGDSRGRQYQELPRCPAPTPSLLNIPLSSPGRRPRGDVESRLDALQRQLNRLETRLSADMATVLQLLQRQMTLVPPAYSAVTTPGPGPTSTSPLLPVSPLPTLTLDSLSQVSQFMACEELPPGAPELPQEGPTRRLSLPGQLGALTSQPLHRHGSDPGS

| SMILES | hERG current change (%, negative = inhibition) at 10uM |
| --- | --- |
| CC(C)NC(=O)C1CCN(C2CCN(C(=O)c3scc4c3CCCC4)CC2)CC1 | -1.4% |
| Cc1ccc2c(c1)N(CC(=O)N1CCOCC1)C(=O)CO2 | 4.9% |
| COc1cc(/C=C2/C(=O)NN(c3ccc(F)cc3)C2=O)cc(Cl)c1O | 16.4% |
| O=C(CCCOc1ccc(Br)cc1)Nc1ccc(S(=O)(=O)N2CCOCC2)cc1 | 2.38% |
| Cc1ccc(C(=O)C(C)OC(=O)CNC(=O)c2ccc(Br)o2)cc1 (centres unmarked) | -44.6% |
| CC(NC(=O)c1ccncc1)c1ccc(Cl)cc1Cl (centres unmarked) | -9.73% |
| CCOc1c(Cl)cc(CNCCc2c[nH]c3ccccc23)cc1OC.Cl | -24.2% |
| Cc1cc(NC(=O)CSc2nc(-c3ccccc3Cl)nc3c2c(=O)n(C)c(=O)n3C)no1 | 9.62% |
| COC(=O)Cc1ccc(NC(=O)c2ccc3c(c2)C(=O)N(Cc2ccco2)C3=O)cc1 | -2.43% |
| CCN1CCN(S(=O)(=O)c2ccc3c(c2)OCCO3)CC1 | 10.7% |
| C[NH+](C)CCCN1c2ccccc2Sc2ccc(Cl)cc21.[Cl-] | -65.3% |
| O=C(Nc1ccc(N2CCN(Cc3ccccc3)CC2)cc1)c1ncn[nH]1 | -5.05% |
| Cc1ccc(OCC(=O)Nc2ccc(S(=O)(=O)Nc3ccccn3)cc2)cc1C | 24.4% |
| COC(CNC(=O)C1CCCN(S(=O)(=O)c2c(C)noc2/C=C/c2cccs2)C1)OC (centres unmarked) | -23% |
| CCCc1cc(=O)n2[nH]c(-c3cccc(Br)c3)cc2n1 | 4.16% |
| COc1ccccc1C(=O)Nc1ccc(OC(C)C(=O)N2CCOCC2)cc1 (centres unmarked) | 1.1% |
| COc1cc(/C=N/NC(=O)c2ccncc2)ccc1OCC(=O)Nc1ccc(C)c(C)c1 | -10.7% |
| O=C(NN=C1CCCC1)c1cc(-c2ccc(F)cc2)nc2ccccc12 | 12.9% |
| Cc1cccc(N2CCN(CC(=O)Nc3ccccc3[N+](=O)[O-])CC2)c1C | -0.256% |
| CCn1c(SCC(=O)c2ccccc2)nnc1-c1ccoc1C | 2.98% |
| COc1ccc(Nc2nc3c(c(=O)n(C)c(=O)n3C)n2CCO)cc1 | 4.72% |
| CSc1nncc(-c2ccc(F)cc2)n1 | -4.26% |
| C/C(=N\NC(=O)Cc1cccn1C)c1cccs1 | 30.2% |

| SMILES | hERG current change (%, negative = inhibition) at 10uM |
| --- | --- |
| O=C(Nc1cccc(Cl)c1)c1ccc2ncsc2c1 | -12.6% |
| COc1cccc(CNC(=O)CCCn2ccc3cc(S(=O)(=O)N4CCCC4)ccc32)c1 | -27.8% |
| CC(=O)c1sc(NC(=O)COc2c(C)cc(Cl)cc2C)nc1C | 33.3% |
| Cc1ccc(N=Cc2ccc(O)cc2O)cc1F | 20.6% |
| C=CCn1c(C)cc(C(=O)CN2C(=O)c3ccccc3C2=O)c1C | 6.81% |
| Cc1cc(C)c(S(=O)(=O)Nc2ccc(N(C)C)cc2)c(C)c1-n1cnnn1 | 11.2% |
| Cc1cc(=O)oc2cc(OCC(=O)NC(Cc3c[nH]c4ccc(O)cc34)C(=O)O)c(Cl)cc12 (centres unmarked) | -3.5% |
| CCNc1nc(NC(C)C)nc(N(C#N)CCOc2ccccc2)n1 | -26% |
| CC(=O)Nc1ccc(S(=O)(=O)NC(CC(=O)NCCC2=CCCCC2)C(C)C)cc1 (centres unmarked) | 5.52% |
| O=C(N/N=C/c1ccc[nH]1)c1ccccc1[N+](=O)[O-] | 19.9% |
| COC(=O)CSc1[nH]c2ccc(F)cc2c1[N+](=O)[O-] | 18.5% |
| COC(=O)c1ccc(CSc2nc3c(c(=O)n2-c2ccccc2)SCC3)o1 | -16.7% |
| Cc1ccc(-c2cc(C(F)F)nc(NCC3CCCO3)n2)cc1 (centres unmarked) | -12% |
| Cc1nc2c(-c3ccc(F)cc3)c(C)nn2c(N2CCOCC2)c1C | 6.11% |
| COc1ccc(N2C(=O)S[C@@H]3CS(=O)(=O)C[C@@H]32)cc1 | 3.8% |
| Cc1ccc(S(=O)(=O)NC2=NCN(C(C)C)CN2)cc1 | 14.5% |
| NC(=O)c1ccc(N2CCCCC2)c(N2C(=O)C3CC=CCC3C2=O)c1 (centres unmarked) | 15.6% |
| O=C(O)COc1ccc(C(NC(=O)c2c(F)cccc2F)NC(=O)c2c(F)cccc2F)cc1 | 18.7% |
| CCN(c1ccccc1)S(=O)(=O)c1ccc(NC(=S)NC(=O)c2cccs2)cc1 | 10.6% |
| CC(C(=O)NC1=NCCS1)(C(F)(F)F)C(F)(F)F | -3.47% |
| O=C(NN1CCOCC1)c1ccc(Cl)s1 | -3.04% |
| N#Cc1cn(N2CCCCC2)c(=O)[nH]c1=O | 14% |
| Nc1nc(SCC(=O)N2CCN(c3ccc(F)cc3)CC2)n[nH]1 | 9.18% |

| SMILES | hERG current change (%, negative = inhibition) at 10uM |
| --- | --- |
| CSCCC(NC(=O)c1ccccc1Cl)C(=O)N1CCC1 (centres unmarked) | -1.99% |
| O=C(COC(=O)c1sc2cc(Cl)ccc2c1Cl)Nc1ncc(Cl)cc1Cl | 15.9% |
| COc1ccc(Br)cc1S(=O)(=O)Nc1ccc(Cl)cn1 | -0.173% |
| COc1ccc(CCNC(=O)C2CCN(S(=O)(=O)c3ccc(OC)cc3)CC2)cc1 | -16.9% |
| C=CCNC(=S)N1CCN(Cc2ccc3c(c2)OCO3)CC1.O=C(O)C(=O)O | 3.16% |
| COc1ccc(N2CCN(C(=O)COC(=O)CCc3ccccc3OC)CC2)cc1 | -6.98% |
| O=C(Nc1ccc2nc(-c3cccnc3)[nH]c2c1)C12CC3CC(CC(C3)C1)C2 | -2.62% |
| Cc1ccc(Nc2cc(C)nc3c(C)ccc([N+](=O)[O-])c23)cc1 | 8.96% |
| CCOc1ccc(NC(=O)C2CC(=O)N=C(N)S2)cc1 (centres unmarked) | 16.1% |
| CC(=O)c1c(C)oc2ccc(N(C(C)=O)S(=O)(=O)c3ccc(F)cc3C)cc12 | 4.72% |
| COc1ccc(C(=O)NCCS(=O)(=O)NC(C)c2ccccc2)cc1 (centres unmarked) | -13.4% |
| CSc1ncccc1C(=O)OCC(=O)N1CCOCC1 | 8.99% |
| NC(=O)COC(=O)CNC(=O)c1cc(Cl)cc([N+](=O)[O-])c1 | 12.4% |
| NC(=S)Nn1c(CCC(=O)O)ccc1-c1ccccc1 | 2.83% |
| COc1ccccc1C(=O)N/N=C(\C)CC(=O)Nc1ccccc1NC(C)=O | 19.6% |
| CSC(=NC#N)N1CCN(C(c2ccccc2)c2ccccc2)CC1 | -23.5% |
| C=CCN(CC=C)C(=O)C[n+]1ccc(C(N)=O)cc1.[Cl-] | -0.0573% |
| CCNCCC(=O)N1c2ccccc2Sc2ccc(C(F)(F)F)cc21.Cl | 0.883% |
| C=CCn1c(O)c(C=NC2CCN(Cc3ccccc3)CC2)c(=O)[nH]c1=O | -33.5% |
| Cc1ccc(NC(=O)c2ccc(Cl)c(S(=O)(=O)N3CCCCC3)c2)nc1 | -23.4% |
| S=C(NCc1cccs1)Nc1cccc(Cl)c1 | -6.52% |
| O=C(N/N=C\c1c(O)ccc2ccccc12)c1ccc(S(=O)(=O)N2CCCCC2)cc1 | -3.55% |
| COc1ccc(N2CCN(Cc3cc4c(cc3Br)OCCO4)CC2)cc1 | 6.7% |

| SMILES | hERG current change (%, negative = inhibition) at 10uM |
| --- | --- |
| CCCc1cc(=O)oc2c3c(c4c(c12)OC(C)(C)C=C4)OC(C)C(C)C3O (centres unmarked) | 9.1% |
| Cc1ccc(NC(=S)N(CCN2CCOCC2)Cc2ccccc2F)cc1Cl | -12.3% |
| CCN1CC=C2C(C1)C(c1ccc(Cl)s1)C(C#N)=C(N)C2(C#N)C#N (centres unmarked) | -25.9% |
| O=C(COc1ccccc1)Nc1nonc1NC(=O)COc1ccccc1 | -12.8% |
| CSc1ccc(C(=O)C2CCCN(Cc3cnc(SC)nc3)C2)cc1 (centres unmarked) | -76.4% |
| COc1cc(CNCCSc2nnnn2C)cc(Br)c1OCc1ccccc1.Cl | -56.3% |
| COc1ccc(C(CNC(=O)Nc2cccc(C)c2)N2CCN(C)CC2)cc1 (centres unmarked) | -14.5% |
| COC(=O)C(C)NC(=O)c1cn(-c2ccccc2OC)c(=O)c2ccccc12 (centres unmarked) | 15.6% |
| COc1ccc(C)cc1NC(=O)C1CCN(S(=O)(=O)c2ccccc2)CC1 | 3.67% |
| CC(C)(C)c1ccc(C(=O)NNC(=O)C(=O)N2CCCCC2)cc1 | 14.3% |
| COc1ccc(CCNC(=O)c2nnn(CC(=O)Nc3ccccc3C)c2N)cc1OC | 16.3% |
| COC(=O)NC(NC(=S)Nc1ccc([N+](=O)[O-])cc1)C(Cl)(Cl)Cl (centres unmarked) | 3.93% |
| O=C(NC(NC(=S)Nc1c(Cl)cccc1Cl)C(Cl)(Cl)Cl)OCc1ccccc1 (centres unmarked) | 7.52% |
| COc1ccc(NC(=O)Cn2nc(C)c([N+](=O)[O-])c2C)cn1 | 4.49% |
| COc1ccc(Cl)cc1NC(=O)COC(=O)C1CCCCC1 | 7.15% |
| Cc1nc2ccccc2n1CCOc1ccc(F)cc1 | -19.8% |
| CCCn1c(=O)c(C(=O)Nc2ccccc2)c(O)c2ccccc21 | 0.0267% |
| Cc1ccc(S(=O)(=O)/N=C(\c2ccc(Cl)cc2)N2CCOCC2)cc1 | -27.8% |
| COc1ccc(CN2CCNC(=O)C2CC(=O)NCCN2CCCCC2=O)c(F)c1 (centres unmarked) | 19.1% |
| Cc1cc(C)n(-c2nc(NCCN(C)C)c3c4c(sc3n2)CCCC4)n1 | -16.3% |
